{"source": "paper PMC6919601", "about": "“Identification of Plasmodium dipeptidyl aminopeptidase allosteric inhibitors by high throughput screening” (PLoS ONE, 2019)", "note": "Out of some 110,000 compounds screened, about 230 (0.21%) showed an effect of 50% or more. The list shows a part of the results.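 Also: 30 min substrate incubation versus DMSO and 10 µM JCP410 controls.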", "data": [{"molecular_target": "DPAP1 (Plasmodium falciparum, UniProt Q8IIJ9)", "sequence (Q8IIJ9 whole entry, looked up)": "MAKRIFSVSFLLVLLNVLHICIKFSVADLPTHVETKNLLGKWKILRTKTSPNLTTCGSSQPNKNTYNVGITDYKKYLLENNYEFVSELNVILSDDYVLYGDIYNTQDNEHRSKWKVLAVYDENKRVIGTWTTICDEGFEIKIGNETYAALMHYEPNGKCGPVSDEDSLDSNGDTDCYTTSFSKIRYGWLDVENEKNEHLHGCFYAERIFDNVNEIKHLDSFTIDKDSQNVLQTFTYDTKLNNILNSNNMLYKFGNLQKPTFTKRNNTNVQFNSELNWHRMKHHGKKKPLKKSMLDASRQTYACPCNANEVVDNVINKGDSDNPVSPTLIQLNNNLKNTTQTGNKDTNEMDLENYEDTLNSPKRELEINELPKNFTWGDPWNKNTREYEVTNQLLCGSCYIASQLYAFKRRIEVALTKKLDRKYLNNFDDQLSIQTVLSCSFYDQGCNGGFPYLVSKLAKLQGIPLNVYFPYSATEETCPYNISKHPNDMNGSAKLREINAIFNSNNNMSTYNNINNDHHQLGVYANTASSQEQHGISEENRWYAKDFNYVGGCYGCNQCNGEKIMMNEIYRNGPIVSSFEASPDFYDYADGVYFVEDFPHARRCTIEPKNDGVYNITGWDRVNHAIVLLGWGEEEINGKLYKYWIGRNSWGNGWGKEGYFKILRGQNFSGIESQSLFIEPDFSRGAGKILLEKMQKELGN", "assay": "primary screen, percent inhibition; read by cleavage of a fluorogenic dipeptide substrate; higher = more effect of the substance", "parameters": "species or system P. falciparum D10 trophozoite lysates; single well", "units": {"% Inhibition @ 10 uM": "%"}, "values": [{"compound": "COc1ccc(-c2nc3c(c(SC(F)F)n2)Cc2c(CO)cnc(C)c2O3)cc1", "% Inhibition @ 10 uM": 1.95}, {"compound": "O=[N+]([O-])c1cc(CN2CCC(O)CC2)ccc1Cl", "% Inhibition @ 10 uM": 1.55}, {"compound": "CCC(C)NC(=O)C1CCN(S(=O)(=O)c2ccc(C)cc2)CC1", "note": "(centres unmarked)", "% Inhibition @ 10 uM": 0.387}, {"compound": "O=C(Nc1cc(Cl)ccc1Cl)c1ccc(F)cc1", "% Inhibition @ 10 uM": -3.82}, {"compound": "O=C1OC(c2ccco2)=N/C1=C\\c1cccc(C(F)(F)F)c1", "% Inhibition @ 10 uM": 3.31}, {"compound": "Cc1cc(NS(=O)(=O)c2ccc(NC(=O)COc3ccc(Br)cc3)cc2)no1", "% Inhibition @ 10 uM": -1.61}, {"compound": "CCOc1ccc(S(=O)(=O)NCCC2=CCCCC2)c2cccnc12", "% Inhibition @ 10 uM": 1.91}, {"compound": "CCNC(=O)/C(=C\\c1ccc2c(c1)OCO2)NC(=O)c1ccccc1OC", "% Inhibition @ 10 uM": -4.76}, {"compound": "Cc1cc(/C=C2\\NC(=O)NC2=O)c(C)n1-c1ccc(OCc2ccccc2F)cc1", "% Inhibition @ 10 uM": 3.37}, {"compound": "Cc1cccc(NC(=O)C2c3ccccc3C(=O)N(CC(C)C)C2c2cccs2)n1", "note": "(centres unmarked)", "% Inhibition @ 10 uM": 1.97}, {"compound": "CCOc1ccc(C(C)NC(=O)c2cnn3c(C(F)F)cc(-c4ccc(OC)cc4)nc23)cc1", "note": "(centres unmarked)", "% Inhibition @ 10 uM": -6.79}, {"compound": "COc1ccc(/C=C2\\C(=N)N3N=C(S(=O)(=O)CC(C)C)SC3=NC2=O)cc1", "% Inhibition @ 10 uM": -1.54}, {"compound": "CCc1ccc2c(c1)Sc1ccccc1CC2N1CCN(CCO)CC1", "note": "(centres unmarked)", "% Inhibition @ 10 uM": -6.02}, {"compound": "C=CCn1c(CC)nc2c(cnn2-c2ccccc2)c1=O", "% Inhibition @ 10 uM": 1.88}, {"compound": "O=CN1N=C(c2ccccc2)CC1c1ccccc1", "note": "(centres unmarked)", "% Inhibition @ 10 uM": -4.08}, {"compound": "O=c1c2nnn(Cc3ccc(F)cc3)c2ncn1Cc1ccc(F)cc1", "% Inhibition @ 10 uM": -4.17}, {"compound": "Cc1cccc(NC(=O)C2CCN(S(=O)(=O)c3c(C)noc3/C=C/c3cccs3)CC2)n1", "% Inhibition @ 10 uM": 0.458}, {"compound": "COc1ccc2nc(NC3=NC(=O)CC(c4ccccc4)N3)nc(C)c2c1", "note": "(centres unmarked)", "% Inhibition @ 10 uM": 3.95}, {"compound": "Cc1ccc(-c2onc(C)c2C)cc1S(=O)(=O)NCc1ccccn1", "% Inhibition @ 10 uM": -5.09}, {"compound": "CCOc1cc(C(=O)Nc2ccc3c(c2)C(=O)N(C)C3=O)cc(OCC)c1OCC", "% Inhibition @ 10 uM": -7.5}, {"compound": "Cc1cccc2sc(NC(=O)C3CCC(C/N=c4/c(N5CCOCC5)c(O)c4=O)CC3)nc12", "note": "(centres unmarked)", "% Inhibition @ 10 uM": 4.4}, {"compound": "Cc1nn(CCCC(=O)NC(C)c2ccccc2)c(=O)c2cc3sccc3n12", "note": "(centres unmarked)", "% Inhibition @ 10 uM": 3.4}, {"compound": "Cc1cccc(C)c1C(=O)c1ccc(O)cc1O", "% Inhibition @ 10 uM": -6.41}, {"compound": "Cc1cc(OCC(=O)Nc2ccc(S(=O)(=O)Nc3ncccn3)cc2)ccc1C(C)C", "% Inhibition @ 10 uM": 2.95}, {"compound": "CCN1CCN(C(=O)CCn2nc(-c3ccc(Cl)cc3)ccc2=O)CC1", "% Inhibition @ 10 uM": 4.81}, {"compound": "COc1cccc(CN2CCN(Cc3cc(OC)c4c(c3)OCO4)CC2)c1", "% Inhibition @ 10 uM": 2.97}, {"compound": "CN1CCC(NCCN2CCOCC2)CC1", "% Inhibition @ 10 uM": -1.81}, {"compound": "CCn1cc(C(=O)NCCCOC)c2cc(OC)c(OC)cc2c1=O", "% Inhibition @ 10 uM": 0.505}, {"compound": "O=C(NCCO)c1nnc(-c2ccc3c(c2)OCO3)o1", "% Inhibition @ 10 uM": -1.97}, {"compound": "Cc1oc(-c2ccc(C(=O)NCc3ccc(Cl)cc3)cc2)nc1CS(=O)c1ccccc1", "note": "(centres unmarked)", "% Inhibition @ 10 uM": -7.28}, {"compound": "CC(CC(=O)O)CC(=O)Nc1ccccn1", "note": "(centres unmarked)", "% Inhibition @ 10 uM": -7.33}, {"compound": "CCOC(=O)c1cc2c(=O)n3ccccc3nc2n(C(C)C)/c1=N\\C(=O)COc1ccccc1", "% Inhibition @ 10 uM": 4.37}, {"compound": "CCOc1ccc(CCNc2nc3ccccc3n3nnnc23)cc1OCC", "% Inhibition @ 10 uM": -5.37}, {"compound": "Cc1cc2ccccc2n1CCNC(=O)c1ccc(S(=O)(=O)N(C)C)cc1", "% Inhibition @ 10 uM": -2.87}, {"compound": "CC(C)c1cc(C(=O)NCCc2ccccc2)no1", "% Inhibition @ 10 uM": -6.45}, {"compound": "NCC1CCN(S(=O)(=O)c2ccc(-n3cnnn3)cc2)CC1", "% Inhibition @ 10 uM": -6.56}, {"compound": "CC1CCN(S(=O)(=O)c2ccc(Br)c(C(=O)O)c2)CC1", "% Inhibition @ 10 uM": 5.56}, {"compound": "Cn1c(=O)c2cn(-c3cccc4ccccc34)cc2n(C)c1=O", "% Inhibition @ 10 uM": -7.8}, {"compound": "CCOc1ccc(N(CC(=O)Nc2ccc(Br)c(C)c2)S(C)(=O)=O)cc1", "% Inhibition @ 10 uM": -3.87}, {"compound": "CCc1nn(-c2ccccc2)c2c1C(c1ccccc1)C(C#N)=C(N)O2", "note": "(centres unmarked)", "% Inhibition @ 10 uM": 0.121}, {"compound": "Cc1cc(C(F)(F)F)n2nc(C)c(C#N)c2n1", "% Inhibition @ 10 uM": -1.92}, {"compound": "c1ccc2c(N3CCC4(CC3)OCCO4)nnc(Cc3ccncc3)c2c1", "% Inhibition @ 10 uM": -1.43}, {"compound": "Cn1cc(C(=O)NCCN2CCN(Cc3ccccc3)CC2)c2c3ccccc3n(C)c2c1=O", "% Inhibition @ 10 uM": 3.27}, {"compound": "CCN(CC)c1ccc(NC(=O)CCc2ccccc2)cc1", "% Inhibition @ 10 uM": -2.98}, {"compound": "O=C(CSc1nnc(-c2ccccc2)n1Cc1ccccc1)NCc1ccco1", "% Inhibition @ 10 uM": -8.85}, {"compound": "COc1ccc(Br)cc1/C=C1/OC(c2ccccc2F)=NC1=O", "% Inhibition @ 10 uM": -1.33}, {"compound": "CC(=O)C1=C(C)OC(N)=C(C#N)C1c1ccsc1", "note": "(centres unmarked)", "% Inhibition @ 10 uM": 4.3}, {"compound": "O=C(NCc1cccnc1)c1cc(-c2ccccc2Cl)on1", "% Inhibition @ 10 uM": 3.54}, {"compound": "CCCNC(=O)NC1CCN(c2nc3ccccc3s2)CC1", "% Inhibition @ 10 uM": -1.11}, {"compound": "CCc1ccc(C2C(C(=O)OC)=CNC=C2C(=O)OC)cc1", "% Inhibition @ 10 uM": -0.357}, {"compound": "CCOC(=O)C1=C(CNCCOc2ccc(OC)cc2)NC(=O)NC1c1ccc2c(c1)OCO2", "note": "(centres unmarked)", "% Inhibition @ 10 uM": 2.57}, {"compound": "Cn1c(=O)c2c(nc(SCC(=O)NC3CCCCC3)n2Cc2ccccc2F)n(C)c1=O", "% Inhibition @ 10 uM": 3.38}, {"compound": "Cc1ccc(NS(=O)(=O)c2ccc(NC(=O)C(F)(F)F)cc2)c(C)c1", "% Inhibition @ 10 uM": 4.11}, {"compound": "CCOC(=O)c1c(C)c(-c2ccccc2)n(CC(=O)N2CCc3ccccc3C2)c1C", "% Inhibition @ 10 uM": 3.32}, {"compound": "CCCCc1ccc(N2CC(C(=O)Nc3ccccc3Cl)CC2=O)cc1", "note": "(centres unmarked)", "% Inhibition @ 10 uM": 0.777}, {"compound": "O=C(CCC1CCCC1)N1CCC(c2nc(-c3ccc(S(=O)(=O)N4CCCC4)cc3)no2)CC1", "% Inhibition @ 10 uM": 0.401}, {"compound": "COc1cc(NC(=O)COc2cc(C)ccc2C(C)C)ccc1NC(=O)c1ccco1", "% Inhibition @ 10 uM": 5.53}, {"compound": "COc1cc(OC)cc(-c2nc3nc(C)c(CCC(=O)NCCCOC(C)C)c(C)n3n2)c1", "% Inhibition @ 10 uM": -4.1}, {"compound": "COc1cc(C(=O)Nc2ccc(N3CCN(C(=O)C(C)C)CC3)c(Cl)c2)cc(OC)c1OC", "% Inhibition @ 10 uM": 2.02}, {"compound": "Cc1ccc(CN2C(=O)CCC2C(=O)NC2CC2)cc1", "note": "(centres unmarked)", "% Inhibition @ 10 uM": 1.62}, {"compound": "COc1ccc(NC2=NC(=O)/C(=C/c3ccc(N4CCOCC4)cc3C)S2)cc1", "% Inhibition @ 10 uM": 3.61}, {"compound": "COc1cc(C2c3c(-c4ccccc4O)n[nH]c3C(=O)N2CCCO)ccc1O", "note": "(centres unmarked)", "% Inhibition @ 10 uM": -4.95}]}]}
